# Counter-ions that a name gives are not always drawn. ± gives the standard deviation of the averaged measurements. Whole data set: some 3,200 compounds, median “nuclei count (viability) relative to DMSO” near 99, cut for the lowest 2% near 16. The list shows a part of the results.
# System: U2OS
# Assay: nuclei count (viability) relative to DMSO (% of DMSO); higher = more viable cells
# Conditions: 10 µM; 24 h
# Method: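 Primary image-based screen in U2OS cells: compounds at 10 uM for 24 h, then a 1 h o-propargyl-puromycin (OPP) pulse, click labelling, and high-throughput microscopy. Mean cytoplasmic OPP intensity and nuclei count were normalised to DMSO wells within each plate (DMSO = 100) and averaged over triplicate plates.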
row,Structure (SMILES),nuclei count
1,C/C=C(\C)C(=O)N[C@@H](c1ccccc1)[C@@H](O)C(=O)O[C@H]1C[C@@]2(O)[C@@H](OC(=O)c3ccccc3)[C@@H]3[C@]4(OC(C)=O)CO[C@@H]4C[C@H](O)[C@@]3(C)C(=O)[C@H](OC(C)=O)C(=C1C)C2(C)C [Cephalomannine],37.5
2,CCC(COC(=O)c1cc(OC)c(OC)c(OC)c1)(c1ccccc1)N(C)C (stereo not given) [Trimebutine],102
3,NCCc1c[nH]c2ccc(O)cc12 [Serotonin],103
4,NCCc1c[nH]c2ccc(O)cc12 [Serotonin hydrochloride],99
5,CCN(C(C)=O)c1cccc(-c2ccnc3c(C#N)cnn23)c1 [Zaleplon],100
6,COc1ccc(C[C@H]2NC[C@H](O)[C@H]2OC(C)=O)cc1 [Anisomycin],12.5 ± 8.3
7,CCC1(c2cccc(O)c2)CCCCN(C)C1 (stereo not given) [Meptazinol hydrochloride],101
8,C[C@@H]1CC[C@H]2[C@@H](C)C(=O)O[C@@H]3O[C@@]4(C)CC[C@@H]1[C@]32OO4 [Artemisinin],97 ± 5.9
9,CCNC1(c2cccs2)CCCCC1=O (stereo not given) [Tiletamine hydrochloride],113
10,COc1cc([C@@H]2c3cc4c(cc3[C@H](O)[C@H]3COC(=O)[C@H]23)OCO4)cc(OC)c1OC [Podophyllotoxin],15.6
11,CC(C)(C)NCC(O)COc1cccc2[nH]c(C#N)cc12 (stereo not given) [Cyanopindolol hemifumarate],92
12,O=C1Nc2cc(Cl)c(Cl)cc2N2CCNCC12 (stereo not given),95.9
13,COc1ccc(C(=O)O[C@H]2CC[C@@]3(C)[C@@H]4CC[C@H]5[C@]6(O)C[C@H](O)[C@@]7(O)[C@@H](CN8C[C@@H](C)CC[C@H]8[C@@]7(C)O)[C@]6(O)C[C@@]53O[C@]24O)cc1OC [Veratridine],99.4
14,Cc1cccc([C@H](C)c2c[nH]cn2)c1C [Dexmedetomidine HCl (Precedex)],106
15,CC1(C(=O)O)C2CCC(O2)C1(C)C(=O)O (stereo not given) [Cantharidic acid],66.9
16,CCCN(CCC)[C@@H]1CCc2c(OC)cccc2[C@@H]1C [(+)-UH 232 maleate],109
17,CC(C)(C)NCC(O)c1ccccc1Cl (stereo not given) [Tulobuterol],113
18,C#C[C@]1(O)C=C[C@H]2[C@@H]3CCC4=CC(=O)CC[C@@H]4[C@H]3CC[C@@]21CC [Gestodene],97
19,C[C@]12Cc3c[nH]nc3C[C@@H]1CC[C@@H]1[C@@H]2CC[C@@]2(C)[C@H]1CC[C@]2(C)O [Stanozolol],89.2
20,Cc1nnc2ccc(-c3cccc(C(F)(F)F)c3)nn12,92.3

# — the supplement of paper PMC8183993
